Experimental findings from ChEMBL document CHEMBL4888484, “Replenishing the malaria drug discovery pipeline: Screening and hit evaluation of the MMV Hit Generation Library 1 (HGL1) against asexual blood stage Plasmodium falciparum ,using a nano luciferase reporter read-out” (2022) are described below.

The structures appear in SMILES notation. In all, about 150,000 compounds went through this assay and about 540 (0.36%) showed an effect of 50% or more. Some of the results follow.

This test has as its system Plasmodium falciparum. Kind of test: Primary screen in NF54 nanoGlo assay, in single point, at 2uM, 72h; a lower Z score goes with more inhibition. It counts as functional, Erythrocyte. Conditions: timepoint 72 hour.
As for `CC(C)[C@H](CNC(=O)c1cc(F)cc(Cl)c1)N(C)C`, the “% Inhibition” value is 10% and the Z score is listed as -1.95.

In the case of `COCc1ccccc1C(=O)N1CC[C@H](C)S(=O)(=O)CC1`, the “% Inhibition” value was -11% and the Z score was 1.56.

Regarding `CC[C@H](C)NC(=O)CCc1nc(-c2nn(-c3ccccc3)c(=O)n(C)c2=O)no1`, the “% Inhibition” value is on record as -8% and the Z score came out at 1.35.

For `COCCN1C(=O)CO[C@H]2CN(C(=O)c3ccc(F)cc3)C[C@H]21`, the “% Inhibition” value is on record as 24% and the Z score is -2.76.

`Cc1n[nH]cc1CN(C)C(=O)CC[C@H](C)N1CCOCC1`: the “% Inhibition” value is reported as -5% and the Z score is reported as 0.86.

Regarding `O=C1CC(C(=O)N2CCCCC2c2nc(-c3ccccc3)c[nH]2)CN1` (configuration not stated), the “% Inhibition” value stood at 37% and the Z score was -1.78.

As for `COc1ccnc(CN2CCC(c3cc(Cc4ccccc4)n[nH]3)CC2)c1`, the “% Inhibition” value is listed as 2% and the Z score is -0.24.

On to `CCCCc1nc(Cn2ccnn2)no1`, for which the “% Inhibition” value is on record as -3% and the Z score turned out to be 0.31.

For the compound `O=C(NCc1cccs1)N1CC(n2nccn2)C1`, the “% Inhibition” value was found to be 17% and the Z score is on record as -1.89.

Consider `CCc1cnc(CCNc2ccccn2)s1`, for which the “% Inhibition” value was found to be 10% and the Z score was -1.34.

With `COc1cc(OC)cc(C(=O)N(C(=O)c2cc(OC)cc(OC)c2)c2cccc(C)n2)c1`, the “% Inhibition” value came out at 3% and the Z score was -0.36.

With `CO[C@@H](CS(=O)(=O)Nc1c(C)cc(C)cc1C(=O)O)c1ccc(F)cc1`, the “% Inhibition” value is -1% and the Z score is given as 0.11.

`O=C(Nc1cncc(Cl)c1)N1CC(CO)C1`: the “% Inhibition” value is -1% and the Z score was found to be 0.11.

Turning to `CCN(CC)C(=O)NCc1ccccc1OC`, the “% Inhibition” value is recorded as -3% and the Z score worked out at 0.58.

On to `Cc1nn(C)c2ncnc(Nc3ccc4cn[nH]c4c3)c12`, for which the “% Inhibition” value stood at 2% and the Z score is -0.31.

Turning to `COc1ccc(Cl)cc1NC(=O)Cn1nc2c(Oc3ccccc3C)nc3ccccc3n2c1=O`, the “% Inhibition” value is on record as -12% and the Z score is given as 1.15.

As for `N#Cc1ccccc1CN1CCN(C(=O)c2ccccn2)[C@H]2CS(=O)(=O)C[C@H]21`, the “% Inhibition” value is on record as -4% and the Z score is given as 0.68.

In the case of `O=C(CCC(F)(F)F)N[C@H]1CCOC[C@@H]1O`, the “% Inhibition” value turned out to be 1% and the Z score was -0.17.

In the case of `C[C@H](NC(=O)N1CC[C@@H]2OCC(=O)N[C@H]2C1)c1ccc(F)cc1Cl`, the “% Inhibition” value is -9% and the Z score is recorded as 1.67.

In the case of `Cn1cccc(C(=O)NCCc2nc3c(c(C(F)(F)F)n2)CCCC3)c1=O`, the “% Inhibition” value was -2% and the Z score is recorded as 0.26.

In the case of `Cn1cc(C(NC(=O)c2ccc(Cl)cc2F)[C@H]2C[C@H](O)C2)cn1` (some centres not stated), the “% Inhibition” value was -17% and the Z score amounted to 1.54.

Take `C[C@H]1CC[C@@H](C(=O)O)N1S(=O)(=O)c1ccc(C(F)(F)F)s1`: the “% Inhibition” value is -10% and the Z score was determined as 1.09.

For the compound `CCN(CC)[C@H]1CCN(Cc2nc(C3(c4ccc(C)cc4)CCCC3)no2)C1`, the “% Inhibition” value is -12% and the Z score is 1.58.

`CN(C(=O)NC(=O)c1ccccc1)c1ccccc1`: the “% Inhibition” value was 0% and the Z score is 0.03.

Turning to `CC(C)c1ccc(-n2cc(O)c(C(=O)N(C)C3CCN(C(=O)OC(C)(C)C)CC3)n2)cc1`, the “% Inhibition” value was 0% and the Z score is -0.04.

In the case of `CN(CC(=O)NCCc1cccc2cccnc12)CC1(O)CCCC1`, the “% Inhibition” value was -17% and the Z score is 1.53.

On to `O=C(NCCCc1ccccc1)C1CCN(c2nnc3ccc(Cl)cn23)CC1`, for which the “% Inhibition” value is given as -21% and the Z score amounted to 2.28.

As for `COCC1(C(=O)Nc2cc(OC)ccc2-n2cnnn2)CCC1`, the “% Inhibition” value is listed as -14% and the Z score is on record as 2.74.

On to `O=C(C[C@H]1C(=O)NCCN1Cc1ccc2ccccc2c1)NCc1ccc(Cl)cc1`, for which the “% Inhibition” value is on record as -12% and the Z score is 1.7.

For `C[C@]1(F)CCN(C(=O)c2cc(C#N)c[nH]2)C1`, the “% Inhibition” value is -3% and the Z score is 0.6.

As for `CN(CCC1CCOCC1)[C@H]1CCN(c2ccccc2)C1=O`, the “% Inhibition” value is recorded as -10% and the Z score was determined as 1.31.

Take `COc1ccc(C(=O)N2CCCCCC2=O)cc1`: the “% Inhibition” value is 2% and the Z score is given as -0.37.

Take `O=C(c1ccccc1)N1CCCn2cc(-c3ccc4c(c3)OCO4)nc21`: the “% Inhibition” value is -3% and the Z score is reported as 0.59.

In the case of `CCc1ccccc1OCCN1CC[C@]2(O)CCN(C(=O)C3CCC3)C[C@@H]2C1`, the “% Inhibition” value was -11% and the Z score stood at 1.96.

For the compound `C[C@H]1[C@@H](NC(=O)c2csc(C(C)(C)C)n2)CCS1(=O)=O`, the “% Inhibition” value is -8% and the Z score was 1.39.

As to `CC(C)(C(N)=O)N1CCN(C(=O)NC[C@H]2CCCO2)CC1`, the “% Inhibition” value is given as -4% and the Z score is 0.55.

For the compound `COc1cc(-c2noc(C3CCCC3)n2)ccc1OCc1cccc(C)c1`, the “% Inhibition” value is on record as -5% and the Z score is 0.59.

On to `CC1CC1C(NC(=O)C(C)N1CCN(C)CC1)c1ccc(Cl)cc1` (configuration not stated), for which the “% Inhibition” value was -7% and the Z score is 0.74.

For the compound `O=C(Cn1nc2n(c1=O)C(=O)N(c1ccc(Cl)cc1)C2)Nc1nccs1`, the “% Inhibition” value was -6% and the Z score is recorded as 0.72.

On to `Cn1cnnc1C[C@H]1CCN(S(=O)(=O)c2ccc3c(c2)CCC3)C1`, for which the “% Inhibition” value is -11% and the Z score came out at 1.4.

`CCOC(=O)N1CCc2c(sc(NC(=O)CN3CCOCC3)c2C(=O)Nc2cccc(Cl)c2)C1`: the “% Inhibition” value amounted to 3% and the Z score is -0.47.
